Reference: PMC4336329 (PLoS ONE, 2015)
The whole screen tested about 310,000 compounds, of which about 2,200 (0.71%) showed an effect of 50% or more. Effects have a minus sign here. The list shows a part of the results.

molecular target: human ether-à-go-go-related gene (hERG) potassium channel (human, UniProt Q12809); assay: primary screen, population patch clamp on CHO cells stably expressing hERG
Method: Briefly, Chinese hamster ovary (CHO) cells stably expressing the hERG channel were dislodged from tissue culture flasks and dispensed into PPC plates. […] During the recording, background leak currents were estimated by a 100 ms step to -80 mV from an initial holding potential of -70 mV and subtracted from the subsequent current measurement. The campaign was conducted in two phases using slight differences in recording protocol. In the first phase, the initial voltage pulse used a 100 ms step to -30 mV from a holding potential of -70 mV, a 2 s conditioning step to +25 mV, and a 2 s test step to -30 mV. During the second phase of the screen, the potential during the conditioning step was raised to +45 mV. In both phases of the campaign, a secondary voltage pulse was applied using the same parameters as the second phase initial pulse. The initial and secondary pulses were applied in the absence of compound, and upon application of 1 μM and 10 μM test concentrations. Small molecule effects on hERG current density were quantified by […].

Sequence of human ether-à-go-go-related gene (hERG) potassium channel (Q12809 whole entry, looked up): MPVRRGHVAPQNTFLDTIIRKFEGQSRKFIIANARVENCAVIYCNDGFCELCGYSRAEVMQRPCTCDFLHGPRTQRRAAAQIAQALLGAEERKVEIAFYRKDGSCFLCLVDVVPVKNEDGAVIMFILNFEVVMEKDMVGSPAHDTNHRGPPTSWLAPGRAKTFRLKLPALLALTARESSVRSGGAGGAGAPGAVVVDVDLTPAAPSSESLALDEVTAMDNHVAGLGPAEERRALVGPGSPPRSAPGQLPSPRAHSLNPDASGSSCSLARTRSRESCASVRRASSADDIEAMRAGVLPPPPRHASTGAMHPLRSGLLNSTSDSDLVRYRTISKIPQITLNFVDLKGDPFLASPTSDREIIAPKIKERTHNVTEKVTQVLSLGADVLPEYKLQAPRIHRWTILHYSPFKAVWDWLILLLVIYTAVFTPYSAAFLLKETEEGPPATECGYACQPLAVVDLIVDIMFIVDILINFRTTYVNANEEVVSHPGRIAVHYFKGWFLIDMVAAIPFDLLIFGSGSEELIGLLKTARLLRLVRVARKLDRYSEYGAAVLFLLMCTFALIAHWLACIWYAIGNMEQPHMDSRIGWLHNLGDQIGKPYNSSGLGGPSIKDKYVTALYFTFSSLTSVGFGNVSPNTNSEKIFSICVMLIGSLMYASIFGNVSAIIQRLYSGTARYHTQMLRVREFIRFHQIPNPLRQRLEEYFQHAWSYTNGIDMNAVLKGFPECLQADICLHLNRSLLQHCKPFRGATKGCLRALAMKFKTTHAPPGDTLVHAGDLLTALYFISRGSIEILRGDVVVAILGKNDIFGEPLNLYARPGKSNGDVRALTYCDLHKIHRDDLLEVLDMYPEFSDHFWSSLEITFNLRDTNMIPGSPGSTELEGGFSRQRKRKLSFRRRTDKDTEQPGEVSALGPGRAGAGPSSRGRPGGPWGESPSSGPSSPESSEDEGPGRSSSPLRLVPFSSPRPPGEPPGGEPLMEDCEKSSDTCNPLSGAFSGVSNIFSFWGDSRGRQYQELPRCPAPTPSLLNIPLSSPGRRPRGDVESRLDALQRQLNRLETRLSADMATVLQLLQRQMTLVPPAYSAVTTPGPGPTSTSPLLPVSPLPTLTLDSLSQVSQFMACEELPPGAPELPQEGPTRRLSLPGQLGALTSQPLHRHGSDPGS

SMILES | hERG current change (%, negative = inhibition) at 1uM
CC(C)C12CN3CC(C(C)C)(CN(C1)C3c1cccnc1)C2=O (centres unmarked) | 7.09%
CCC(C)(C(=O)NC1CCCCC1)N(C(=O)c1ccccn1)c1ccc(C)cc1 (centres unmarked) | 8.52%
CCCc1ccc(NS(=O)(=O)c2c(C)oc(C)c2C(=O)OC)cc1 | 9.92%
O=C(C1CCCN(Cc2ccccc2F)C1)N1CCc2ccccc2C1.O=C(O)C(=O)O (centres unmarked) | 9.16%
COc1ccc2cc(S(=O)(=O)NCc3cccnc3)ccc2c1 | 7.92%
CCC(=O)Nc1ccc(NC(=S)NC(=O)c2cc3ccccc3o2)cc1 | 4.98%
C/C(=N/NC(=O)Nc1ccccc1)c1ccc(C)cc1 | 3.84%
CCOc1ccccc1NC(=O)CSc1nc2cccnc2n1C | 5.84%
COc1cc(C)nc(-n2nc(C)cc2OC)n1 | 13.5%
Cn1nc(C(F)(F)F)c2cc(C(=O)N3CCOCC3)sc21 | 5.87%
OC(COc1cccc(OCC(O)CN2CCCC2)c1)CN1CCCC1 (centres unmarked) | 4.76%
c1ccc(Oc2cccc(OCCn3cncn3)c2)cc1 | -3.65%
COc1ccc(NS(=O)(=O)c2cc(NC(=O)CCNC(C)=O)ccc2N2CCOCC2)cc1 | 11.5%
CO/N=C(/CS(=O)Cc1ccccc1Cl)c1ccc(Cl)cc1Cl (centres unmarked) | 8.12%
CCc1ccc(/C=C2\SC(N3CCCC3)=NC2=O)cc1 | -4.96%
COCCN1CCN(C(=O)C2CCC(=O)N(Cc3ccc(Cl)cc3)C2)CC1 (centres unmarked) | 10.1%
CC(C)(C)c1cc(OC(=O)c2ccccc2F)ccc1O | 11.5%
CCn1cc(CNCc2c(C(=O)N3CCCCC3)nc3c(C)cccn23)cn1 | 5.99%
Fc1ccc(Nc2ccnc(C(F)(F)F)c2)cc1 | 15.5%

SMILES | hERG current change (%, negative = inhibition) at 1uM
Cc1ccc(NS(=O)(=O)c2ccc(Br)cc2)nc1 | 12.9%
CC(C)(C)c1cc(C(=O)NC2CC2)n(Cc2ccc(F)cc2)n1 | 8.75%
CCOC(=O)Cn1nnnc1CN(Cc1cccs1)Cc1cc2cc(C)cc(C)c2[nH]c1=O | -0.811%
COc1cc2c(cc1OC)CN(C(=O)CN1CCN(S(=O)(=O)c3ccccc3Br)CC1)CC2 | 0.741%
CN(C(=O)c1cccn(Cc2ccccc2)c1=O)c1ccccc1 | 11.2%
COCCCNC(=O)/C(C#N)=C/c1cccc(NC(=O)c2ccccc2Cl)c1 | 13.9%
Cc1nn(Cc2ccc(Cl)cc2Cl)c(C)c1NC(=O)c1ccc(COc2cc(Cl)ccc2Cl)o1 | 3.19%
Cc1cccc(CNC(=O)c2ccc3c(c2)N(C)CCS3)c1 | -20.7%
CC(C)(C)C(O)/C=C/c1ccc2c(c1)OCO2 (centres unmarked) | 9.29%
CCOC(=O)CN(C(=O)CSc1nnc(-c2ccc(OC)c(OC)c2)o1)c1ccc(F)cc1 | 0.729%
Cc1ccccc1-n1c(=O)n(Cc2ccco2)c(=O)c2[nH]cnc21 | 12.8%
O=C(Nc1nnc(-c2ccc(Cl)cc2)o1)c1ccc(N2C(=O)CCC2=O)cc1 | 4.39%
O=C(c1cc(-c2cccs2)on1)N1CCOCC1 | -6.55%
CCC1S/C(=N/C(=O)NC2CCCCC2)NC1=O (centres unmarked) | 14.7%
CN(C)C(CNC(=O)CCNC(=O)c1ccc(Br)cc1)c1ccco1 (centres unmarked) | 3.59%
CC(C)COc1ccc(/C(=N/O)c2ccccc2)cc1 | 14.1%
O=C1CC(=O)N(CCNc2ncc(C(F)(F)F)cc2Cl)C(=O)N1 | 18.2%
O=C(c1ccco1)N1CCN(C2CC(=O)N(c3ccc(F)c(Cl)c3)C2=O)CC1 (centres unmarked) | 2.02%
NS(=O)(=O)c1ccc(CCNC(=O)CN2C(=O)c3ccccc3S2(=O)=O)cc1 | -0.323%

SMILES | hERG current change (%, negative = inhibition) at 1uM
COc1cc(NC(=O)CCNC(=O)Cn2cnc3ccccc3c2=O)cc(OC)c1OC | 21.4%
O=S(=O)(c1ccccc1)N1CCN(c2ccccc2)CC1 | 14.5%
Cc1cccc(C(=O)OC(C)C(=O)N2CCc3ccccc3C2)c1C (centres unmarked) | 5.93%
Cc1ccc(S(=O)(=O)c2nc(-c3ccc(F)cc3)oc2N2CCOCC2)cc1 | -0.115%
CC1CCC2(CC1)NC(=O)N(CC(=O)NCCc1c[nH]c3ccccc13)C2=O (centres unmarked) | -5.87%
CC(C)CCNc1nc2ccccc2nc1NS(=O)(=O)c1cccs1 | 5.67%
c1ccc2[nH]c(N3CCOCC3)nc2c1 | 4.17%
COc1ccc(NC(=O)N2CCCC(c3nc(-c4ccc(OC)cc4)no3)C2)cc1 (centres unmarked) | 1.38%
S=C(Nc1ccccc1)N(CCN1CCOCC1)Cc1cccc(Cl)c1 | 8.7%
COc1ccc(OCC(=O)Nc2c(C(=O)N3CCN(C)CC3)oc3ccccc23)cc1 | -15%
CCN(C(=O)Cn1ccc(C(F)(F)F)n1)c1c(N)n(Cc2ccccc2)c(=O)[nH]c1=O | -4.36%
CC(C)(C)OC(=O)N[C@@H](Cc1c[nH]c2ccccc12)c1nnc(SCC(N)=O)o1 | 6.29%
COc1ccc(C)cc1NC(=O)CC(NC(C)=O)c1ccccc1 (centres unmarked) | 5.97%
CC(C)C[C@@]12C(=O)N(c3ccc(Br)cc3)C(=O)N1[C@H](c1ccc(Br)cc1)[C@@H]1C(=O)N(C(C)(C)C)C(=O)[C@@H]12 | 5.48%
CN(Cc1ccccc1)C(=O)c1ccc(NC(=O)Cc2cccc(NC(=O)C3CCN(C(=O)C4CCCCC4)CC3)c2)cc1 | 6.82%
COc1cc(S(=O)(=O)NCc2ccccn2)c(OC)cc1Cl | 7.67%
Cc1nc2c(c(=O)[nH]1)C(c1ccccc1Cl)c1c(c3ccccc3oc1=O)O2 (centres unmarked) | 9.85%
CC1=C(C(=O)Nc2ccc(C)cc2)C(c2ccco2)NC(=O)N1 (centres unmarked) | 7.52%
